Reference: article PMC10196804
Results are given in words; binding and its absence hold for the method and conditions named. For some assays here: In cells and extracts the contact can be indirect. Some entries that bind do so weakly or less than the wild type.

By UniProt entry, the sequences of proteins in these tests, tags left out. Where a name states a change or a piece, a line headed by the entry shows the natural chain unless it says otherwise. Chains listed by the source or under a name are the forms on record and can include a tag or linker. Residues count along the entry.
myc-HERC2 (amino acids 2292–2923) (O95714, residues 2292-2923): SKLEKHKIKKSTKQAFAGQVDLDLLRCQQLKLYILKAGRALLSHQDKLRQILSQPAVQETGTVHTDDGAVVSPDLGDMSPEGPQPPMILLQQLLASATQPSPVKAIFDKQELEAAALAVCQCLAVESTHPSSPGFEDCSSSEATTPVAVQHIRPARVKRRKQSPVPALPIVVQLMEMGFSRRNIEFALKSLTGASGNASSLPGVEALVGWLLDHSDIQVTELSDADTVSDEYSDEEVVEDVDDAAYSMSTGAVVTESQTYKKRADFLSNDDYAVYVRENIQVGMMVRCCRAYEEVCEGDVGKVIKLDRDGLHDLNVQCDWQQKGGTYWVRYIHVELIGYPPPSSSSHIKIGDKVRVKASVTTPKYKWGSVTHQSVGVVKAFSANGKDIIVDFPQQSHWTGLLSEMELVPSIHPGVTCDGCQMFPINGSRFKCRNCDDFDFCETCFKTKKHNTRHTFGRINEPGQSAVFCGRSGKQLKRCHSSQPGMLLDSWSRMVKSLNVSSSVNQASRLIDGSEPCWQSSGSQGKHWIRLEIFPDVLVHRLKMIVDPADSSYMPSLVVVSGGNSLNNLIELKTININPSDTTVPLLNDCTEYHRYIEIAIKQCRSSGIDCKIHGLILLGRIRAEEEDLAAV
His-HERC2 (amino acids 2540–2700) (O95714, residues 2540-2700): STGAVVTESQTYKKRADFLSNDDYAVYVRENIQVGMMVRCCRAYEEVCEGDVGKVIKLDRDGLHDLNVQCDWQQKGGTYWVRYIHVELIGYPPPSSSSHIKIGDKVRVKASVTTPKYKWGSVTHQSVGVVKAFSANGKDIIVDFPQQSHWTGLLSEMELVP
UniProt Q13772: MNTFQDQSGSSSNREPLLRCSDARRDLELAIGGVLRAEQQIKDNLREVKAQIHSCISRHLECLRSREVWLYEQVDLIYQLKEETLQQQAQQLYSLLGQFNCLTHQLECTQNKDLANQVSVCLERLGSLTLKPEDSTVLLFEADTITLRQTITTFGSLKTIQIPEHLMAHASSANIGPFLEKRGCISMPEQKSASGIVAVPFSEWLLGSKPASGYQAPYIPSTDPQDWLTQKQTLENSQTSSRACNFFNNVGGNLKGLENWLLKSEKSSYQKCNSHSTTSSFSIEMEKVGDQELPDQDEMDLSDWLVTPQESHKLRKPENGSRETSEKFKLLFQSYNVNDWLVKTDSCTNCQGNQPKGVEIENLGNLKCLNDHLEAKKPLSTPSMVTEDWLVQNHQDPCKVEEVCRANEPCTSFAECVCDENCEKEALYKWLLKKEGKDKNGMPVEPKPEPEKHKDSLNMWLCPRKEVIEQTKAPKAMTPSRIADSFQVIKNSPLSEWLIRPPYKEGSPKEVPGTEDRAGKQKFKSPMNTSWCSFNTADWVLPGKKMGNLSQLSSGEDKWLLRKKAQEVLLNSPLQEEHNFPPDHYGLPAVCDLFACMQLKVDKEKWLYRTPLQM
GST-NCOA4 (amino acids 383–522) C404S (Q13772, form named): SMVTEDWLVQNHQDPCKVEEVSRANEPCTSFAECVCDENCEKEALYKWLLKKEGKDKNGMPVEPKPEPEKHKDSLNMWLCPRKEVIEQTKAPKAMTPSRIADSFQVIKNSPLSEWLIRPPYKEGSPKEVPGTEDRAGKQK
GST-NCOA4 (amino acids 383–522) C410S (Q13772, form named): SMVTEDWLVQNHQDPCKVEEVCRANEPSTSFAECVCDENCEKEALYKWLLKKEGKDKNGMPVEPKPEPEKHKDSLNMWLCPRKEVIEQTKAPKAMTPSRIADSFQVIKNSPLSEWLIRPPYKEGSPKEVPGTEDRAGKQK
GST-NCOA4 (amino acids 383–522) C416S (Q13772, form named): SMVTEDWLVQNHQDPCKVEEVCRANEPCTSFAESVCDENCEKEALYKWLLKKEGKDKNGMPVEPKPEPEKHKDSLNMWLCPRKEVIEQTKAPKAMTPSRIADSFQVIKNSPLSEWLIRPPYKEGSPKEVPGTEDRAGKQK
GST-NCOA4 (amino acids 383–522) C422S (Q13772, form named): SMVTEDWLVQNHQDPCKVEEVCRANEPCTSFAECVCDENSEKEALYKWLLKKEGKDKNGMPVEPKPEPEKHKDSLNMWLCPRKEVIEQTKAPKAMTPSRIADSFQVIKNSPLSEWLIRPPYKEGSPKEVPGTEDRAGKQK

Key:
[1] = target: FLAG-hHERC2 (amino acids 2292–2923) (human) (UniProt O95714); assay: co-IP; HEK293T cells transfected with control siRNA and FLAG-hHERC2 (amino acids 2292–2923), 25 μg/ml FAC for 3 h; anti-FLAG immunoprecipitation; endogenous NCOA4 detected by immunoblot
[2] = target: FLAG-hHERC2 (amino acids 2292–2923) (human) (UniProt O95714); assay: co-IP; as a3, but cells transfected with ISCU-specific siRNAs (knockdown of Fe–S cluster biogenesis), 25 μg/ml FAC for 3 h; anti-FLAG immunoprecipitation; endogenous NCOA4 detected by immunoblot
FLAG-NCOA4 C404S (human) = FLAG-NCOA4 C404S (human) (UniProt Q13772); assay: co-IP; HEK293T cells co-transfected with FLAG-NCOA4 (WT or mutant) and myc-HERC2 (amino acids 2292–2923), treated with Dfo or FAC; anti-FLAG antibody and Protein A beads on Triton X-100 soluble lysate, 4 °C; myc-HERC2 detected by immunoblot
FLAG-NCOA4 C410S (human) = FLAG-NCOA4 C410S (human) (UniProt Q13772); assay: as above
FLAG-NCOA4 C416S (human) = FLAG-NCOA4 C416S (human) (UniProt Q13772); assay: as above
FLAG-NCOA4 C422S (human) = FLAG-NCOA4 C422S (human) (UniProt Q13772); assay: as above
[3] = target: FLAG-NCOA4 WT (nuclear receptor coactivator 4) (human) (UniProt Q13772); assay: as above
[4] = target: GST-NCOA4 (amino acids 383–522) C404S (human) (UniProt Q13772); assay: condition: 2.8 μg His-HERC2 and 2 μg GST protein in 800 μl; pull-down; GST-tagged proteins (2 μg) and His-HERC2 (amino acids 2540–2700) (2.8 μg) in 20 mM Tris–HCl pH 7.5, 150 mM NaCl, 0.1% Triton X-100, 1 mM DTT; Glutathione Sepharose beads, 1 h at 4 °C; gel stained with CBB; both purified
[5] = target: GST-NCOA4 (amino acids 383–522) C410S (human) (UniProt Q13772); assay: as above
[6] = target: GST-NCOA4 (amino acids 383–522) C416S (human) (UniProt Q13772); assay: as above
[7] = target: GST-NCOA4 (amino acids 383–522) C422S (human) (UniProt Q13772); assay: as above

endogenous NCOA4 (from UniProt Q13772 1-614)
binding [1]: binds | binding [2]: no binding (condition: with siRNA knockdown of ISCU)

myc-HERC2 (amino acids 2292–2923) (from UniProt O95714 2292-2923) (domain or fragment)
binding (FLAG-NCOA4 C404S (human)): no binding | binding (FLAG-NCOA4 C410S (human)): no binding | binding (FLAG-NCOA4 C416S (human)): no binding | binding (FLAG-NCOA4 C422S (human)): no binding | binding [3]: binds

His-HERC2 (amino acids 2540–2700) (from UniProt O95714 2540-2700) (domain or fragment)
binding [4]: no binding | binding [5]: no binding | binding [6]: no binding | binding [7]: no binding
